Screen size: about 71,000 compounds; about 1,800 (2.5%) were called active. The shares of active, inactive and inconclusive entries below differ from those in the screen. Calls follow the shape of the dose curve; as a rule, active = well fitted activation curve with a large enough effect in the signal ratio, with a control signal flat (not every such curve was filed as active); inconclusive = small, poorly fitted or top-dose-only effect, or effect the other way, or a change in a side signal; inactive = flat fitted curve, though single readings scatter; the % refers to the signal ratio. Where the call is inconclusive, the potency comes from a doubtful curve fit.
assay: Cell signaling CRE-BLA (Fsk stim); details: CHO CRE-bla reporter (cAMP response element driving beta-lactamase), forskolin EC10, beta-lactamase ratio; activity change, negative = inhibition: at 38.2 µM (top of the series) unless noted; as to activity change, negative = inhibition: % of control where 0% means no effect
Outline: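 AC50 values, positive or negative, reflect shifts in EC10 NKH 477-induced CRE-bla reporter activity in CHO cells. Incubation lasted 3 h at 37 °C before CCF4 substrate (2 h, room temperature) and ratiometric 460/530 nm reading.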
Potency is read from the fitted curve at half-maximal effect; tags tell the direction and shape of the fitted curve.

Compound | Potency | activity change, negative = inhibition
Cc1ccc(-n2c(SCC(=O)Nc3cc(C)on3)nc3c(c2=O)SC(C)C3)cc1 (stereo not drawn) | inconclusive: 7.94 µM [rising, partial curve] | 
C=CCNc1nc(N(c2ccccc2)c2ccccc2)nc(-n2ccnc2)n1 |  | inconclusive: 22.6%
Cc1cccc(C)c1NC(=O)C1(N(Cc2ccco2)C(=O)CC2NC(=O)NC2=O)CCCCC1 (stereo not drawn) | inconclusive: 0.0158 µM [falling, partial curve, poor fit] | 
COc1ccccc1N1CCN(C(=O)C(NS(=O)(=O)c2cccs2)c2ccccc2)CC1 (stereo not drawn) |  | inconclusive: -3.77%
Cn1c(=O)c(-c2ccccc2)nc2cnc(N3CCNCC3)nc21 | inconclusive: 3.16 µM [rising, partial curve] | 
NCCC[C@@H](CC(=O)N[C@@H]1CCCC[C@H]1C(=O)N[C@H](CC(=O)N[C@@H](CCC(=O)O)CC(=O)O)Cc1ccccc1)NC(=O)C[C@H](CO)NC(=O)[C@@H]1CNCC[C@H]1N |  | inconclusive: -16.7%
O=C(c1ccco1)N1CCN(C(=O)c2cc3c(=O)oc4ccccc4c3s2)CC1 | inconclusive: 3.16 µM [rising, full curve, poor fit] | 
O=C(CSc1nc2ccccc2[nH]1)c1ccc2c(c1)OCO2 |  | inactive: 10.4%
Cc1nn(Cc2ccccc2)c(C)c1NC(=O)c1cc(-c2ccc3c(c2)OCO3)on1 |  | inconclusive: 10.7%
CNC(=O)NC(=O)CSc1nc2cc(C(=O)OC)ccc2c(=O)n1-c1ccccc1 | inconclusive: 5.01 µM [falling, single point] | 
Cc1cc(C)n(-c2nc3c(c(=O)[nH]c(=O)n3C)n2CC(O)COc2ccccc2C)n1 (stereo not drawn) |  | inconclusive: 21.5%
Cc1ccccc1-c1ccc2ncnc(N(C)Cc3ccco3)c2c1 | inconclusive: 12.6 µM [rising, partial curve] | 
CCOCCCNC(=O)c1ccc2c(c1)OCO2 |  | inconclusive: 5.49%
CCOC(=O)N1CCN(c2nc(-c3ccco3)cc(C(F)(F)F)n2)CC1 |  | inactive: -3.13%
O=c1c(-c2cccc(F)c2)nc2cncnc2n1Cc1ccc(F)cc1 | inconclusive: 5.01 µM [rising, partial curve] | 
CCOC(=O)Cc1nnc(NC(=O)CSc2nncn2C)s1 |  | inconclusive: 20.5% [at 7.6 µM]
CCC(=O)Nc1ncnc2ncn(C(=O)CC)c12 |  | inactive: 11% [at 7.6 µM]
CCc1nnc(NC(=O)CCC(=O)N2CCN(Cc3cc(Cl)ccc3OC)CC2)s1 |  | inconclusive: 16.6%
Clc1ccccc1CNc1ncnc2nc[nH]c12 |  | inconclusive: -8.38%
CCOC(=O)Nc1cc(C(=O)OC)cc(C(=O)OC)c1 |  | inconclusive: 23.4%
COC(=O)c1c(-c2cccs2)csc1NC(=O)CN1CCOCC1 | active: 3.16 µM | 
COc1ccc(N2CC(O)=C(c3nc(C)cs3)C2=N)cc1 |  | inactive: -10.1%
c1ccc(-c2oc3ncnc(NCCCn4ccnc4)c3c2-c2ccccc2)cc1 | inconclusive: 3.98 µM [rising, partial curve] | 
O=C(NC1CCCC1)C(c1ccsc1)N(Cc1ccco1)C(=O)Cc1cccs1 (stereo not drawn) |  | inactive: -9.41%

Compound | Potency | activity change, negative = inhibition
Cc1ccc(-n2nc(-c3ccc(N)cc3)cc2N)cc1 |  | inconclusive: -9.61%
Cc1onc(-c2ccccc2Cl)c1C(=O)Nc1ccc(OCC(=O)N2CCOCC2)cc1 |  | inconclusive: -12.8% [at 7.6 µM]
Cc1ccc(CCNC(=O)CN2CCN(Cc3ccccc3F)C2=O)cc1 | inconclusive: 0.0501 µM [falling, partial curve, poor fit] | 
COc1ccc(OC)c(NC(=O)COc2ccc(S(=O)(=O)NC(C)C)cc2)c1 | inconclusive: 10 µM [rising, single point] | 
O=C(NCc1ccco1)Nc1ccc2nsnc2c1 |  | inconclusive: -7.37% [cytotoxic]
N#Cc1ccc(CN2CCC3(CC2)CCN(C(=O)c2cccc(F)c2)CC3)cc1 |  | inactive: 2.53%
NC[C@H]1O[C@@H](n2cnc3c(=O)[nH]c(N)nc32)[C@@H](O)[C@@H]1O |  | inactive: 7.02% [at 7.6 µM]
CC(C)(C)NC(=O)CSc1nnc(CN2CCCCCC2=O)n1-c1ccccn1 | inconclusive: 3.16 µM [falling, single point] | 
Cc1c(C(=O)NCc2ccc3c(c2)OCO3)oc2ccccc12 |  | inconclusive: -10.7%
O=C(Cc1ccccc1)Nc1ccc2oc(-c3cccnc3)nc2c1 | inconclusive: 10 µM [rising, partial curve] | 
COc1ccccc1CCn1c(=O)cnc2cncnc21 | inconclusive: 25.1 µM [rising, single point] | 
Cc1ccc2nc(NCc3ccco3)c(C=NCc3ccco3)c(=O)n2c1 | active: 10 µM | 
Cc1cc(C)n2cc(CSC3=NCCS3)nc2n1 | inconclusive: 3.16 µM [falling, single point] | 
c1ccc(-c2nn3c(Cn4nnc5ccccc54)nnc3s2)nc1 | inconclusive: 10 µM [rising, single point] | 
c1cc2c(cc1Nc1nc(-c3ccc4c(c3)OCO4)cs1)OCCO2 |  | inconclusive: -0.724%
C=CCSc1nnc2nc3c(nn12)c1cc(C)ccc1n3CC=C | inconclusive: 10 µM [rising, partial curve] | 
CC1=CC(=C(C#N)c2nc3ccccc3s2)C=C(C)N1Cc1ccco1 | inconclusive: 1 µM [rising, full curve] | 
CCCCOCCCNC(=O)c1ccc2c(c1)OCO2 |  | inconclusive: 36.8% [at 7.6 µM]
Cc1nnc(SCCn2c(N3CCCC(C)C3)nc3c2c(=O)[nH]c(=O)n3C)s1 (stereo not drawn) |  | inconclusive: 27.6%
COc1cc2c(cc1NC(=O)CC1SC(N3CCCC3)=NC1=O)oc1ccccc12 (stereo not drawn) | inconclusive: 12.6 µM [falling, single point] | 
Cc1ccc(S(=O)(=O)Cn2nnnc2C(c2ccc(F)cc2)N2CCC(C(N)=O)CC2)cc1 (stereo not drawn) |  | inactive: -5.27%
O=C(CCN1C(=O)c2ccccc2C1=O)Nn1cnnc1 |  | inactive: -5.48%
COc1ccc(C(=O)NC2=C(C#N)CCC2)cc1OC | inconclusive: 12.6 µM [rising, partial curve] | 
COc1ccc(C(=O)CSc2nn3c(=O)c(C(C)(C)C)nnc3s2)cc1 |  | inactive: -7.08%

Reference: PubChem BioAssay AID662 (National Center for Advancing Translational Sciences (NCATS), 2007)
